Experimental: 32.6 g (0.1 mol) of sodium 4-[bis(2-chloroethyl)amino]benzenebutyrate was dissolved in 100 ml of acetonitrile. 26 g (0.10 mol) of 2-Bromo-N,N-diethylethylamine.HBr in ethyl acetate was added into the reaction mixture. The mixture was stirred for 3 h at RT. Solid is removed by filtration. The solvents were evaporated off. The solid product was collected by filtration and washed with ether. After drying, it yielded 35 g of the desired product (72.3%). Hygroscopic product; Solubility in water: 300 mg/ml; Elementary analysis: C20H33BrCl2N2O2; MW: 484.30. Calculated % C, 49.60; H, 6.87; Br, 16.50; N, 5.78; O: 6.61; Cl, 14.64. Found % C, 49.52; H, 6.89; Br, 16.55; N, 5.75; O: 6.65; Cl, 14.64. ^1H-NMR (400 MHz, D2O): δ: 1.55 (t, 6H), 2.02 (m, 2H), 2.27 (m, 2H), 2.54 (m, 2H), 3.23 (m, 4H), 3.51 (m, 2H), 3.60-3.65 (m, 8H), 4.51 (m, 2H), 6.55 (m, 2H), 6.95 (m, 2H).
(A) 30.4 g (0.1 mol) of 4-[bis(2-chloroethyl)amino]benzenebutanoic acid was dissolved in 300 ml of chloroform. 20.6 g of N,N′-Dicyclohexylcarbodiimide was added into the reaction mixture. […] Calculated % C, 54.61; H, 7.56; N, 6.37; O, 7.27; Cl, 24.18. […]
36.9 g (0.1 mol) of sodium 4-[bis(2-chloroethyl)amino]-N-acetyl-L-phenylalanine was dissolved in 100 ml of acetonitrile. […] Calculated % C, 47.83; H, 6.50; Br, 15.15; N, 7.97; O, 9.10; Cl, 13.45. […]

SMILES	Solubility in water [mg/mL]
CCN(CC)CCOC(=O)CCCc1ccc(N(CCCl)CCCl)cc1.Cl [N,N-diethylaminoethyl 4-[bis(2-chloroethyl)amino]benzenebutyrate.HCl]	300
Br.CCN(CC)CCOC(=O)CCCc1ccc(N(CCCl)CCCl)cc1 [N,N-diethylaminoethyl 4-[bis(2-chloroethyl)amino]benzenebutyrate.HBr]	300

— patent US10189774B2 (priority 2006, dated 2019)
